PubChem BioAssay (NCI)
Where “and” joins values, the source holds several entries; their conditions need not be identical. Identical values can stand only once.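 Where inhibition never reached the appropriate level, the endpoint shown equals the highest concentration tested. Otherwise, values were interpolated linearly from a five-concentration, 48-hour dose response in 96-well plates. Abbreviation: GI50, concentration required for 50% inhibition of growth. TGI is the concentration that stops growth completely.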 Numbered stars: 1 amine (or outer) side, 2 acyl side, 3 side chain; on linkers, the order of the positions; unused ones are H or OH. Bridge positions count the residues as written; N and C are the ends. Square brackets hold non-standard residues; d marks the D form. Peptide text beside a SMILES is read from it. I, II: the chains in the order shown. * marks the point of attachment. Actinocin(9to1) = Cc1c2oc3c(C)ccc(C(=O)[*:1])c3nc-2c(C(=O)[*:2])c(N)c1=O; NMeY = CN[CH](Cc1ccc(O)cc1)C(=O)O; Boc = CC(C)(C)OC(=O)*; Bn = c1ccc(C*)cc1; Sar = CNCC(=O)O

Tested on: NCI-H322M lung
Experiment: inhibition of tumour cell growth, NCI panel, 48 h

Structure (SMILES)	TGI	GI50
CCOC(=O)CCC(NC(=O)Cc1ccc(Nc2nc3cc(F)c(F)cc3nc2C(=O)OCC)cc1)C(=O)OCC (stereo not drawn)	> 100 µM	
CC1(C)/C(=N\NC(N)=O)C2CCC1C2 (stereo not drawn)	> 100 µM	
O=S(=O)(O)CCCc1cccc2ccccc12	> 100 µM	
O=C(CCN(C(=O)O)S(=O)(=O)c1ccc(NC(=O)c2ccccc2)cc1)Nc1ccccc1	> 100 µM	
O=C(Nc1ccc(Br)cc1F)c1cc(F)ccc1O	> 28.9 µM	0.413 µM
Nc1ccc2c(c1)C(=O)N1CCC[C@H]1C(=O)N2	> 100 µM	
CC1(C)CC(=O)C(C=NC(=S)c2ccccc2)=C(O)C1	> 100 µM	
Cc1ccc(SC2c3ccc(C)cc3Oc3nc(N)c(C#N)c(N)c32)cc1 (stereo not drawn)	6.65 µM	2.35 µM
Cc1cc(Nc2ccc(NC(=O)c3ccc(Nc4ccnc5ccccc45)cc3)cc2)nc(N)n1	5.9 µM	1.92 µM
COc1cc(-c2oc(=O)ccc2C#Cc2ccccn2)cc(OC)c1OC	> 100 µM	> 23 µM
COC(=O)C1=C(OC(=O)/C(=C/c2ccc(Cl)cc2)c2ccc(Cl)cc2)C(C(=O)OC)[C@@]2(O)[C@@H](C(=O)OC)[C@H](C)C[C@@H]1[C@@H]2C(=O)OC (stereo partly drawn)	> 100 µM	
BrC1=C(Br)C2(SCCS2)[C@H]2C[C@@H]1c1ccccc12	> 100 µM	
COc1cccc(F)c1C(=O)c1cnc(NC2CCN(S(C)(=O)=O)CC2)nc1N	24.9 µM	5.87 µM
COc1cccc2c1C(=O)c1c(O)c3c(c(O)c1C2=O)C[C@@](O)(C(=O)CO)C[C@@H]3OC1CC(N)CC(C)O1 (stereo partly drawn)	0.824 µM and 1.02 µM	0.131 µM
CCN(CC)CCCN1CCc2c([nH]c3ccccc23)C1c1cccnc1 (stereo not drawn)	> 100 µM	
COc1cccc(CCNC(=O)Cc2ccccc2CCO)c1	> 100 µM	
CCN(CC)CCC(CNc1ccnc2cc(Cl)ccc12)c1ccc(Cl)cc1 (stereo not drawn)	5.87 µM	2 µM
CCOc1ncn(-c2ccc(NC(=S)Nc3ncccn3)cc2)n1	> 100 µM	
COC[C@@H](N=CC(C)(C)C)C(C)C	> 100 µM	
COC(=O)c1ccc(/C=C/c2cc(O)ccc2O)cc1	87.6 µM	
CCCC(=O)OCC1OC(n2ccc(N)nc2=O)C(OC(=O)CCC)C1OC(=O)CCC (stereo not drawn)	> 100 µM	
[N-]=[N+]=NC1(Cc2ccccc2)C(=O)c2cccc3c2N(CCC3)C1=O (stereo not drawn)	> 100 µM	
CC(=O)CCn1c(=S)sc2ccccc21	> 100 µM	
Cc1c2oc3c(C)ccc(C(=O)NC4C(=O)NC(C(C)C)C(=O)N5CCCC5C(=O)N(C)CC(=O)N(C)C(Cc5ccc(O)cc5)C(=O)OC4C)c3nc-2c(C(=O)NC2C(=O)NC(C(C)C)C(=O)N3CCCC3C(=O)N(C)CC(=O)N(C)C(Cc3ccc(O)cc3)C(=O)OC2C)c(N)c1=O (stereo not drawn) (I: TVP[Sar][NMeY] / II: TVP[Sar][NMeY]; ester I:1-I:C, II:1-II:C; linker I:N-II:N via Actinocin(9to1); configuration not given here)	> 0.77 µM	0.0285 µM and 0.0106 µM
CN=C(n1ccnc1)n1ccnc1	> 100 µM	

Structure (SMILES)	TGI	GI50
CSC1=Nc2c(c(C)c(C)n2COC(CO)CO)C2=NC(=O)C(C)N12 (stereo not drawn)	> 100 µM	> 100 µM
COc1ccc(/C=C\[N+](=O)[O-])cc1OC	17.4 µM	3.24 µM
CCOC1(OCC)C2C=CC1C(COS(=O)(=O)c1ccc(C)cc1)C2COS(=O)(=O)c1ccc(C)cc1 (stereo not drawn)	> 100 µM	
Cc1cn2c(=O)c3ncn(C4OC(CO)C(O)C4O)c3n(C)c2n1 (stereo not drawn)	> 100 µM	
Cc1cc(C)c2c(n1)sc1c(Nc3ccc(Cl)cc3)ncnc12	> 100 µM	0.914 µM
COc1cccc(C(=O)Oc2ccc(OS(=O)(=O)c3ccc(C)cc3)cc2)c1C#N	> 100 µM	
COc1cc(OCc2cccc(-c3ccc(C(O)c4nccs4)cc3)c2C)cc(OC)c1C=O (stereo not drawn)	14.6 µM	3.73 µM
N#CC1C(=S)NC(c2ccccc2)=CC12CCCCC2 (stereo not drawn)	63.3 µM	
CC1=C(C)CC2C(=O)N(c3cc(C(C)(C)C)ccc3C(C)(C)C)C(=O)C2C1 (stereo not drawn)	> 100 µM	
O=C(Nc1ccc(Nc2ccncc2)cc1)c1ccc([N+](=O)[O-])cc1	46.8 µM	14 µM
O=C(Nc1ccc2ncccc2c1)Nc1ccc2ncccc2c1	> 100 µM	
CC(=O)CCn1ncc(Cl)c(Cl)c1=O	31.3 µM	
COc1cc2c(cc1OC)C(CC1=C(c3ccccc3)CN3CCc4cc(OC)c(OC)cc4C3C1)NCC2 (stereo not drawn)	29.1 µM	
C#CCOc1cccc(-c2ncc3cc(NC(=O)CCl)ccc3n2)c1	3.14 µM	1.73 µM
CN1CCc2c([nH]c3ccccc23)C1	> 100 µM	
CO[C@@]12C[C@@H](C)C3=CCC(C)=C3CC1=C(C)C(=O)O2	> 100 µM	
Cc1ccc(S(=O)(=O)c2[nH]cc(/C(=C\C3CCCCC3)[N+](=O)[O-])c2C2CCCCC2)cc1	3.06 µM	
O=C1C2SC34c5c2c2ccccc2n5CCC3CCCN14 (stereo not drawn)	> 100 µM	
O=c1[nH]nnc2c1sc1ncccc12	> 100 µM	
Brc1ccc2[nH]cc(-c3csc(-c4c[nH]c5ccccc45)n3)c2c1	9.97 µM	
CCOC(=O)C1=CN(C)C=C(C(=O)OCC)C1c1cc(Br)c(OCC)c(OC)c1	> 100 µM	> 100 µM
O=C(/C=C/c1ccccc1)CCC1C(=O)c2ccccc2C1=O	> 100 µM	
CC(C)(C)NNC(=O)CCn1[nH]c(=O)c(Cl)c(Cl)c1=O	> 100 µM	
O=C1Nc2cccc(Cl)c2/C1=C\c1c(Cl)nc2n1CCS2	> 100 µM	
COc1ccc(/C=C2\CCNC2=O)cc1	> 100 µM	

Structure (SMILES)	TGI	GI50
O=[N+]([O-])C[C@@]12O[C@]3(O)C4C5CC(C6C5C3C61)C42 (stereo partly drawn)	> 100 µM	
O=C1COc2cccnc2N1CCCCO	> 100 µM	
O=C1CCC(Cl)=CC2CCCN12 (stereo not drawn)	> 100 µM	
COC(=O)COc1ccccc1/C=C1\N=C(c2ccccc2)N(c2cc(C(F)(F)F)ccc2Cl)C1=O	> 100 µM	> 100 µM
CCCCC#CC1=C(Br)C(=O)OC1	18.5 µM	7.01 µM
O=c1cc[nH]c(=O)[nH]1	> 1000 µM	
O=c1sc2ccccc2n1CC1CS1 (stereo not drawn)	> 100 µM	
Nc1c(C(=O)O)nnc2ccc(Cl)cc12	> 100 µM	
[N-]=[N+]=Nc1c([N+](=O)[O-])c(=O)n(-c2ccccc2)c2ccccc12	72.2 µM	
CCC12CCCN(Cc3ccccc3)C1c1c(n(C)c3ccccc13)CC2 (stereo not drawn)	> 253 µM	
Cn1c(=O)c2c(ncn2CCNC(CO)C(O)c2ccc([N+](=O)[O-])cc2)n(C)c1=O (stereo not drawn)	> 100 µM	
CCO/C(O)=C(/C(=N)N1CCOCC1)C(=O)Nc1ccc(F)cc1	> 100 µM	
C/C=C/C(CC(O)(C(F)(F)F)C(F)(F)F)=N/NC(N)=S	> 10 µM	
CC1=NN(c2nc(N)nc(/C(C#N)=C\c3ccc([N+](=O)[O-])s3)n2)C(C)(C)C1	57.2 µM	
COc1cc(OC)cc(Oc2nc3ccccc3nc2C(F)(F)F)c1	> 100 µM	
Fc1ccc2c(c1)nc1n2C(c2c(Cl)cccc2Cl)SC1 (stereo not drawn)	34.5 µM	
CCOC(=O)Nc1[nH]cc(-c2ccccc2)c1C#N	> 100 µM	
COc1cc(/C=C/C(=O)c2ccc(O)c(OC)c2)ccc1O	32.3 µM	
CCn1c(-c2ccccc2)cs/c1=N\C(P(=O)(O)O)P(=O)(O)O	> 100 µM	
O=C(O)c1nnsc1-c1ccc(-c2snnc2C(=O)O)cc1	> 100 µM	
Nc1nn2cc(F)cnc2c1C(=O)Nc1cncc(F)c1N1CCC(C(=O)N2CCN(C3COC3)CC2)CC1	3.62 µM	0.133 µM
C[C@H]1[C@H]2[C@H]3CC[C@@H]4[C@@]5(C)CC[C@H](O)C(C)(C)[C@@H]5CC[C@@]4(C)[C@]3(C)C[C@H](O)[C@@]2(C)C[C@H]2O[C@]21C	58.3 µM	
COc1ccc2occ(CCC(=O)O)c2c1	> 100 µM	
Cc1ccc2c(c1)C(=S)N1CSCC1c1nncn1-2 (stereo not drawn)	> 100 µM	
NC(=S)N/N=C(\CC1OC(=O)c2ccccc21)c1ccc(Cl)cc1 (stereo not drawn)	> 100 µM	

Structure (SMILES)	TGI	GI50
Cn1cc(C2=C(c3ccc(N)cc3)C(=O)NC2=O)c2ccccc21	> 25 µM	> 21.8 µM
CN1C(=O)c2ccccc2OC12C=Cc1c(ccc3ccccc13)O2 (stereo not drawn)	> 76.6 µM	
CCCC(=O)NC(NC1CCCCC1)(C(=O)OCC)C(F)(F)F (stereo not drawn)	> 100 µM	
CCOC(=O)C(C#N)C1=CC(=O)C(=O)c2ccc(OC)cc21 (stereo not drawn)	79.8 µM	
O=C1/C(=C/c2ccc(Br)s2)NC(=S)N1c1ccccc1	> 100 µM	
CCCCCCCCCCCCCC(=O)OCC(C[As](=O)(O)O)OC(=O)CCCCCCCCCCCCC (stereo not drawn)	> 100 µM	
CCOC(=O)c1ccc(NC(=O)Oc2ccc3c(C)cc(=O)oc3c2)cc1	> 100 µM	
O=C1c2ccccc2C(=O)N1CCn1ccc(NC(c2ccccc2)(c2ccccc2)c2ccccc2)nc1=O	83.3 µM	
c1ccc(N=C(N2CCCC2)N(CCN2CCCC2)c2ccccc2)cc1	> 100 µM	
CC(=O)N(C(C)=O)c1ncc(-n2nc(-c3ccccc3)cc2-c2ccccc2)c(-c2ccccc2)n1	> 10 µM	
O=c1/c(=C/c2ccccc2[N+](=O)[O-])sc2nnc(-c3ccco3)n12	> 100 µM	
CN(C)CCNC(=O)c1cccc2ccc(-c3ccc(O)cc3)nc12	10.3 µM and 11.3 µM	1.62 µM
COC(=O)C(CC(C)C)NC(=O)C(C)NC(=O)C(Cc1ccc(OCc2ccccc2)cc1)NC(=O)C(COCc1ccccc1)NC(=O)OC(C)(C)C (stereo not drawn) (Boc-S(Bn)Y(Bn)AL-OMe; configuration not given here)	> 100 µM	
NS(=O)(=O)c1ccc(/C=C/c2ccc(O)c(O)c2)cc1	> 100 µM	
CC1(C)COC(C2(C)C(=O)C=C(c3ccccc3)c3ccccc32)=N1 (stereo not drawn)	> 100 µM	
CCN(CC)CCNc1ccc2nnn3c4ccc(OCCN(CC)CC)cc4c(=O)c1c23	> 100 µM	
Nc1nc(Cl)cc(NCCCCCCCCNc2cc(Cl)nc(N)n2)n1	> 100 µM	
CC(=O)OC1COC(Oc2c(C)c3c4c(c2O)[C@@H](C)CC[C@@H]4[C@@H](C)C[C@H]3C=C(C)C)C(O)C1OC(C)=O (stereo partly drawn)	30.9 µM	16.1 µM
COc1ccc(Sc2[nH]c(C(C)=O)c3ccccc23)cc1	48.2 µM	13 µM
NC(N)=NCCN1CC2CCC(CC2)C1	> 100 µM	
O=C(Nc1ccn(CCO)c(=O)n1)c1ccccc1	> 100 µM	
COc1ccccc1/C=N\N/C(N)=N\N=C\c1ccccc1OC	8.08 µM	0.542 µM
Clc1ccc2c(c1)[nH]c1c2nc2ccccn21	> 100 µM and 38.4 µM	
CC1(C)OC(C(=O)Nc2cc3c4ccccc4ccc3c3ccccc23)C(C(=O)N2CCCCC2)O1 (stereo not drawn)	> 100 µM	
COC(=O)C[C@](O)(CCCC(C)(C)O)C(=O)O[C@@H]1C(OC)=C[C@]23CCCN2CCc2cc4c(cc2[C@H]13)OCO4	5.15 µM and 0.556 µM	
